From paper PMC4336329 (PLoS ONE, 2015)
Hit rate of the full screen: of about 310,000 compounds, about 2,200 (0.71%) showed an effect of 50% or more. The effect is printed as a negative number. The list shows a part of the results.

These compounds were tested against human ether-à-go-go-related gene (hERG) potassium channel (human, UniProt Q12809) (assay: primary screen, population patch clamp on CHO cells stably expressing hERG).
human ether-à-go-go-related gene (hERG) potassium channel, sequence (Q12809 whole entry, looked up): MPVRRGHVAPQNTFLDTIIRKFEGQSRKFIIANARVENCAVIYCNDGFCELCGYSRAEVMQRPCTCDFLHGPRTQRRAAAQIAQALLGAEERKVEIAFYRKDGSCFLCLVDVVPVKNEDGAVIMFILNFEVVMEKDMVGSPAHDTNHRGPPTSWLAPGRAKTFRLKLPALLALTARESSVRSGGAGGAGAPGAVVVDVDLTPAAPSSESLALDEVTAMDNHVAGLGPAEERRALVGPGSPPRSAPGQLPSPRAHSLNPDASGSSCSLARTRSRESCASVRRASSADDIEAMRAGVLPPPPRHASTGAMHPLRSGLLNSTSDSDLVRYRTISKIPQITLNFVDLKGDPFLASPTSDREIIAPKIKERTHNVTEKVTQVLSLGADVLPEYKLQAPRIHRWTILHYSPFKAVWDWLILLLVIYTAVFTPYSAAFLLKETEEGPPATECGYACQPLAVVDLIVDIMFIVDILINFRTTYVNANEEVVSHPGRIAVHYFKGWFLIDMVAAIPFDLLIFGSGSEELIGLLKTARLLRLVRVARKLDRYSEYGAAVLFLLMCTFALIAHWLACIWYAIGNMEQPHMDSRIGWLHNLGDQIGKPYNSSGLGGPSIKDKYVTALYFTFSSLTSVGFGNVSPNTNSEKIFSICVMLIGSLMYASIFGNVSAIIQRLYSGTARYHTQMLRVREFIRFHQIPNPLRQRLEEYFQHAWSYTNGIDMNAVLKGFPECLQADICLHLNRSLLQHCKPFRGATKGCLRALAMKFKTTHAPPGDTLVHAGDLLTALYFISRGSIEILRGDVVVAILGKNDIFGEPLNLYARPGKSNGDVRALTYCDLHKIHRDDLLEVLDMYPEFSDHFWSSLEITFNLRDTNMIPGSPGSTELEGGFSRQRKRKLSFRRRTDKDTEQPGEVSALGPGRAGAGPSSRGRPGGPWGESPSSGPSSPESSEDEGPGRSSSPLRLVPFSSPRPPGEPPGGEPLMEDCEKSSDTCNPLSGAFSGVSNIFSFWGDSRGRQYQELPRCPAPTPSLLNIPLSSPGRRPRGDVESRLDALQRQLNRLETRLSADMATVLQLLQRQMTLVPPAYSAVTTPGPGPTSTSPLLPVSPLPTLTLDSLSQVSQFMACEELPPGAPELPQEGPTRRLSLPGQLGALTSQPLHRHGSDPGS

SMILES | hERG current change (%, negative = inhibition) at 1uM
Cc1cc(NC(=O)c2ccccc2-c2ccccc2C(=O)O)no1 | 2.07%
Cn1c(=O)c2c(nc(SCCCO)n2Cc2ccccc2Cl)n(C)c1=O | -11.7%
Cc1cccc2cc3c(NC(=O)c4ccccn4)nn(C)c3nc12 | 7.03%
COc1ccc(C2Nc3ccccc3C(=O)N2NS(=O)(=O)c2ccc(C)cc2)cc1OC (stereo not drawn) | 9.78%
CCOc1ccccc1OCC(=O)Nc1ccccc1C(=O)NC1CC1 | 15.8%
CC(Cc1ccco1)NC(=O)c1cccc(S(=O)(=O)N(C)C)c1 (stereo not drawn) | 11.8%
Cc1ccc(S(=O)(=O)N2CCN(C(=O)CCn3nc(C)c(C)c3C)CC2)cc1 | 23.1%
COc1ccccc1NS(=O)(=O)c1ccc(C(=O)N2CCCC(C(F)(F)F)C2)cc1 (stereo not drawn) | 5.56%
CCOc1cc(C2NC(=O)NC(C)=C2C(=O)NCc2ccccc2)c(Cl)cc1O (stereo not drawn) | -6.28%
O=C(CSc1ccc2ccccc2c1)Nc1ccncc1 | 7.51%
O=C(O)Cn1c(=O)c2cccn2c2ccccc21 | 18%
COCCNc1nnc(Cc2ccccc2)c(=O)[nH]1 | 19.5%
CCC(C)N1CCCCC1C(=O)Nc1c(C)cc(C)cc1C.Cl (stereo not drawn) | 9.65%
CCCNC(=O)C(Cc1ccc(Cl)cc1)NC(=O)c1ccc(-c2ccccc2)cc1 (stereo not drawn) | 18.6%
Cn1c(=O)c2nc(NCc3ccccc3)cnc2n(C)c1=O | 4.58%
CCCC(=O)Nc1cc(-c2nc3ncccc3o2)ccc1C | 20.2%
Cc1cc(C)cc(NC(=O)C2CCN(C(=O)[C@@H]3Cc4ccccc4CN3)CC2)c1 | -36.9%
C#CCNC(=O)C1=C[C@@H](c2ccc(C(F)(F)F)cc2)C[C@@H](OCCCCO)O1 | -24.5%
Cc1ccc(NC(=O)CCSc2nnc(C)o2)cc1 | 3.34%

SMILES | hERG current change (%, negative = inhibition) at 1uM
O=C1C(=O)N(CNc2ccccn2)c2ccccc21 | 13.4%
Cc1cc2oc(C(=O)Nc3ccc(S(N)(=O)=O)cc3)c(C)c2cc1Cl | 11.7%
Nn1c(SCc2cn3ccccc3n2)nnc1-c1ccncc1 | 5.31%
COc1ccc(CC(=O)Nc2ccc(N3CCOCC3)cc2)cc1OC | 12.6%
CC(=O)c1ccc(NC(=O)c2noc(C(C)C)c2[N+](=O)[O-])cc1 | 17.1%
CCCC(=O)Nc1ccc(Cl)c(NC(=O)c2cccnc2Cl)c1 | 10.7%
COc1cc(C(=O)N2CCN(Cc3ccc4c(c3)OCO4)CC2)c([N+](=O)[O-])cc1OC | 7.28%
CN(C)CCNS(=O)(=O)c1ccc(Cl)cc1 | 13.5%
CCC1CCC2(CC1)SCC(=O)N2c1ccccc1 (stereo not drawn) | 13%
O=C(CCNC(=O)c1ccccc1)OCC(=O)c1ccccc1 | 9.03%
CCOc1ncccc1C(=O)OCC(=O)Nc1ccc(-c2nc3ccc(C)cc3s2)cc1 | 20.8%
CCCCCNC(=O)c1ccc2c(=O)n(CCCN3CCCC3=O)c(=S)[nH]c2c1 | 7.16%
Cc1cc(CNC(=O)c2cccc(OC3CCN(S(=O)(=O)N(C)C)CC3)c2)on1 | 4.35%
COc1cc(C(=O)NCc2ccc(C(=O)NCC(OC)OC)cc2)cc(OC)c1OC | 11%
COc1ccc(CC(=O)Nc2ccccc2C(=O)NCCc2ccccc2)cc1 | 16.5%
Cc1csc(N(C(=O)c2ccccc2F)c2ccccc2)n1 | 10.2%
CCC(=O)Nc1cccc(NC(=S)NC(=O)c2ccccc2Cl)c1 | 7.68%
COc1ccccc1CNc1ncccn1.O=C(O)C(=O)O | 14.2%
COc1cc(NC(=O)Cc2cccs2)cc(OC)c1 | 3.14%

SMILES | hERG current change (%, negative = inhibition) at 1uM
COC(=O)c1c(C(=O)OC)c(-c2ccc(C)cc2)n2c1CS(=O)(=O)C2 | 2.88%
COc1ccc(S(=O)(=O)N2CCCCC2)cc1NC(=O)c1ccccc1 | 15%
S=C(NCc1ccccc1)NCc1ccco1 | 10%
O=C(CCN1CCN(Cc2ccccc2)CC1)Nc1cccc(Cl)c1 | -45%
O=C(NCCS(=O)(=O)N1CCN(c2ccccc2)CC1)c1ccc2c(c1)OCO2 | 6.24%
O=C(Cc1n[nH]c(=O)c2ccccc12)OCC(=O)c1ccc(OC(F)F)cc1OC(F)F | 4.99%
COCCCN1C(=O)c2ccc(C(=O)NCc3ccccn3)cc2C1=O | 4.25%
COc1cc(NC(=O)c2ccc(C)cc2)c(OC)cc1NC(=O)CN1CCCCC1 | -0.012%
COc1cc(CC(=O)OCC(=O)Nc2ccc3c(c2)OCO3)cc(OC)c1OC | 12.3%
COc1cc(OC)cc(C(=O)NNC(=O)CCC(=O)c2cccs2)c1 | 10.5%
O=C(NCc1cccnc1)C(=O)Nc1nccs1 | 14.7%
Cc1ccc2[nH]c(C)c(/C=N/Nc3nc4ccccc4s3)c2c1 | 4.65%
COc1ccccc1Nc1cc(C(=O)N2CCc3ccccc3C2)c2ccccc2n1 | 12.6%
CCOC(=O)C1CCCN(Cc2cc(OC)c(O)c(OC)c2)C1 (stereo not drawn) | 8.1%
COc1ccc(S(=O)(=O)N(C)CC(=O)Nc2ccc(C(F)(F)F)cc2)cc1Cl | 13.6%
CCSC1(SCC)N=C(N)C2(C#N)C(c3ccccc3)NC3=C(CCC3)C12C#N (stereo not drawn) | 14.4%
Cn1c(CSCc2ccc(Cl)cc2Cl)n[nH]c1=S | 9.71%
O=C(CNC(=O)c1ccc(Br)cc1)N=Nc1c(O)[nH]c2ccc([N+](=O)[O-])cc12 | 13.9%
O=C(OCc1ccc(COC(=O)c2ccc(O)cc2)cc1)c1ccc(O)cc1 | 12.9%
